# Data taken from publication PMC12136788.
# The list shows a part of the results.
# T1: UNK ZnF1-3 (human, UniProt Q9C0B0 31-174)
# T1 sequence: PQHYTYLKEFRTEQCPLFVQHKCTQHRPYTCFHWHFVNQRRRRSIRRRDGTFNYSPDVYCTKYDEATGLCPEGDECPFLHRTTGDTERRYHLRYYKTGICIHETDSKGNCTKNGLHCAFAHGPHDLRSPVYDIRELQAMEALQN
# B1: 96689355_96689475_272_5pUTR_ENSMUSG00000038615_ENSMUST00000081775|mouse|control|control (ssRNA)
# RNA: GGGAGUUCUACAGUCCGACGAUCUCUAUGGAGAUCCACUGCAGGCUGCUCACACCAACAGCUGAUGGAGUCUUUCUUUCCUCCUUUUUUUUUUCCCCCCCUUCUCCUUCCUAAGGUUUAUUUUCUUUGGCUGGAGCUACAGGUCAACAGAGGAUUGAGCAUCA
# B2: chr14:78183846:78183847:+_ENSG00000119705_ENST00000557342|hu_hu|hu_hu_hu_mus_False|98_98 (ssRNA)
# RNA: GGGAGUUCUACAGUCCGACGAUCUCUCAGAAAUCUUUCUUUCUUUUAUGUUUGAGCUCCGUGCAAAGCCUUUGCUCUUUGAGCUUGAACGUGGAUCUAUGGGAGGGAAAGCACUGUCAGAAAAGGUAAUUUUUUUUUUAAAGACAACAGAGGAUUGAGCAUCA
# B3: chr11:115359427:115359428:-_ENSMUSG00000020737_ENSMUST00000021083|mus_hu|motif|central (ssRNA)
# RNA: GGGAGUUCUACAGUCCGACGAUCUGCAGUUCACAAGCAUGGAGGAAACAGACAGAACGACAGCGUUCAGGACAGUCAGAGCGGACCCAAGACGAGGCUGGACUUGCCGCCAGGGGGAUUUCUUCUGGAUGGCACUGGGGCCGGCAACAGAGGAUUGAGCAUCA
# B4: chr11:88578658:88578659:-_ENSMUSG00000069769_ENSMUST00000107909|perfect_dup|FALSE|FALSE (ssRNA)
# RNA: GGGAGUUCUACAGUCCGACGAUCGGAGCGUUUCGUAGUGGGAUCUCUCAUGACCAUACAUUCUCUAAUUUCUCCAAAUUUGCUAAAAUAGUCUCUAAGGCUAUCUGGUGAGGUCUGCCAGCUCAGUCCACCGAUAAACAUUUUCAACAGAGGAUUGAGCAUCA
# B5: chr4:140556289:140556290:+_ENSMUSG00000036622_ENSMUST00000037055|mus_mus|mus_mus_mus_hu_False|1_58 (ssRNA)
# RNA: GGGAGUUCUACAGUCCGACGAUCGAUGGAGCUCACCAGGCCCCCUUUUGCCGUGCAGAACCCUGUGCGGGUCACCACUGCUAGCACGUGCGGUCCCACAUAGGCCCGGGCCUGCAAGAUGAGGGUCCCGCAGAAGAGGGUGUGCAACAGAGGAUUGAGCAUCA
# B6: chr15:80390846:80390847:+_ENSG00000086666_ENST00000559775|hu_hu|motif|central (ssRNA)
# RNA: GGGAGUUCUACAGUCCGACGAUCCUGUCCUGUAUCUUGAGACAGACAUUAGCUUUCUGCCUUCCCUAUUCUCAUAAGCAGCGGCUUAAAAGUUUUGAAUUUUAUGCAAGAAAACAUUUUAAAGCCUUCUGUGUUUUACUGCAGCAACAGAGGAUUGAGCAUCA
# Target: T1, UNK ZnF1-3
# Assay: nsRBNS (natural sequence RNA bind-n-seq); RBNS binding buffer (assumed for nsRBNS): 25 mM Tris pH 7.5, 150 mM KCl, 3 mM MgCl2, 0.01% Triton X-100, 500 ug/ml BSA, 20 U/ml SUPERase-In, 4 C; UNK is unkempt and MSI1 is Musashi-1; names of the RNAs are library labels; protein concentration not given here; high values mean tight binding
row,Binder,binding signal
1,B1,0.573 enrichment R
2,B2,0.945 enrichment R
3,B3,1.45 enrichment R
4,B4,0.931 enrichment R
5,B5,0.568 enrichment R
6,B6,0.687 enrichment R
